Test results from PubChem BioAssay AID445 (National Center for Advancing Translational Sciences (NCATS), 2006).
Out of some 110,000 compounds screened, about 40 (0.04%) were called active. Inconclusive results, whose numbers are uncertain, are shown with a selection of clear calls. Calls come from the whole dose curve; as a rule, active = well fitted curve in the direction sought with a large enough effect in the signal ratio (not every such curve was filed as active); inconclusive = small, poorly fitted or top-dose-only effect, or a change in a side signal; inactive = flat fitted curve, though single readings scatter; the % refers to the signal ratio. A potency beside an inconclusive call is a rough fit, not a confirmed value.

assay: IkB Signaling; conditions: ABC-DLBCL IkBa-CBG/CBR dual luciferase ratio (green luciferase fused to IkBa over red control in OCI-Ly3 lymphoma cells), 4 h; IkBa stabilization activation: at 57.1 µM (top of the series), scaled: untreated 0%, proteasome inhibitor 100% unless noted;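 for IkBa stabilization activation: 0% = basal untreated cells and 100% = reference inhibitor full response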
Procedure, shortened: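 Luminescence ratio of IκBα-fused green versus native red beetle luciferase in OCI-Ly3 cells, 4 h post-doxycycline with compound; red signal alone, scaled from basal (0%) to zero light (-100%), flagged nonspecific or cytotoxic effects.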
Potency is the fitted concentration of half-maximal effect.

Structure (SMILES) | IkBa stabilization activation | Potency
COc1ccc(-c2nc3ccccc3n3c(-c4cccc(C)c4)c4c(=O)n(C)c(=O)n(C)c4c23)cc1 | inconclusive: -2.79% [signal inhibitor] | –
O=C(CN1C(=O)C2CCCCN2c2ccc(C(=O)N3CCCC3)cc21)NCc1ccccc1 (stereo not drawn) | inconclusive: 0.741% [signal inhibitor] | –
COC(=O)c1ccccc1NC(=O)CSc1nc2sc3c(c2c(=O)[nH]1)CCCC3 | inconclusive: 13.6% [signal activator] | –
CC(=O)NC(=O)NC1OC(=O)C(Cl)=C1Cl (stereo not drawn) | – | inconclusive: 31.6 µM [rising, partial curve]
COCCCNC(=O)Cn1c(=O)n(-c2cccc(C)c2)c(=O)c2c3c(sc21)CN(C(C)=O)CC3 | inactive | –
CCCCn1c(CCNC(=O)c2ccc(F)cc2)nc2ccccc21 | inactive | –
COc1ccccc1CNc1nc(-c2ccco2)nn1C(=O)c1ccccc1[N+](=O)[O-] | inconclusive: 0.322% [signal inhibitor] | –
CCOc1ccc(NS(=O)(=O)c2ccc3[nH]c(=O)oc3c2)cc1 | inconclusive: 8.75% [signal inhibitor] | –
COc1ccc(-c2cc(C(F)(F)F)nc(S(=O)(=O)CCCC(=O)Nc3ccccc3C(F)(F)F)n2)cc1OC | inconclusive: -7.21% [signal inhibitor] | –
COc1ccc(S(=O)(=O)N2Cc3ccccc3CC2C(=O)Nc2cccc(C)c2)cc1OC (stereo not drawn) | – | inconclusive: 25.1 µM [signal inhibitor, single point]
COc1cccc(CNC(=O)Cn2cc3c(n2)-c2c(oc(C(=O)N4CCOCC4)c2C)CC3)c1 | inactive | –
NC(N)=N[C@H](CC(=O)O)c1ccccc1 | inactive: -0.199% [at 11.4 µM, scaled: untreated 0%, proteasome inhibitor 100%] | –
Cc1cc(=O)n2c(C(=O)Nc3ccc(C)c(C)c3)c(C(=O)Nc3ccccc3)sc2n1 | inconclusive: 8.45% [signal inhibitor] | –
c1cc(Nc2ncnc3sccc23)cc(-c2nnc3n2CCCCC3)c1 | inconclusive: 1.46% [signal inhibitor] | –
CCN(C(=O)CSc1nnc(-c2ccc(Cl)cc2)o1)c1ccccc1 | inconclusive: 4.95% [signal inhibitor] | –
O=C(CSc1nc(-c2ccco2)nc2cc(=O)[nH]n12)Nc1ccccc1Cl | inconclusive: -0.334% [signal inhibitor] | –
O=C(Cn1c(=O)oc2ccccc21)NCc1ccccc1Cl | inactive | –
CCOc1ccc2ncc3c(-c4ccccc4)nn(CC(=O)Nc4cccc(F)c4)c3c2c1 | inactive | –
CCOC(=O)c1cnc(-n2nc(C)cc2C)nc1NCCc1ccccc1 | inconclusive: -10.4% [signal inhibitor] | –
COc1ccccc1CNC(=O)Cn1c(=O)oc2ccccc21 | inconclusive: 12.3% [signal inhibitor] | –
Cc1nn(-c2nc3ccccc3[nH]2)c(N)c1-c1ccccc1 | – | inconclusive: 31.6 µM [rising, partial curve]
O=C(CSc1nc2c(c(=O)[nH]1)CCCC2)Nc1cccc(O)c1 | inconclusive: -1.52% [signal inhibitor] | –
COCCCNC(=O)C1CCN(c2nnc(-n3cccc3CNc3ccc(C)cc3)s2)CC1 | inconclusive: -0.315% [signal inhibitor] | –

Structure (SMILES) | IkBa stabilization activation | Potency
COc1cc2[nH]c(=O)n(CCCC(=O)NCc3ccccc3Cl)c(=O)c2cc1OC | inconclusive: -3.29% [signal inhibitor] | –
COCCCn1c(=N)c(S(=O)(=O)c2ccccc2)cc2c(=O)n3cccc(C)c3nc21 | inactive | –
O=C(Nc1cccc(F)c1)N1CC[C@@]2(CCCN(C(=O)c3ccncc3)C2)C1 | inactive: 2.36% [at 11.4 µM, scaled: untreated 0%, proteasome inhibitor 100%] | –
O=C(CN(Cc1cccs1)C(=O)CN1C(=O)COc2ccccc21)NCc1ccco1 | inactive | –
COc1ccccc1N1CCN(C(=O)CCSCc2ccccc2F)CC1 | inconclusive: -1.82% [signal inhibitor] | –
COc1ccc(S(=O)(=O)Nc2cc(C(C)C)c(O)cc2C)cc1 | inconclusive: 5.23% [signal inhibitor] | –
Cc1oc(-c2ccccc2F)nc1Cn1c(SCc2ccccc2F)nc2ccncc21 | inconclusive: 2.95% [signal inhibitor] | –
CCn1cc2nc(SCc3cc(C)ccc3C)n(Cc3ccc(C)cc3)c(=O)c2n1 | inactive | –
C(=C\c1ccccc1)/CSc1nnc(-c2cnccn2)n1Cc1ccco1 | inactive | –
COc1ccc(Nc2oc(/C=C/c3ccc(F)cc3)nc2C#N)cc1 | inconclusive: 1.1% [signal inhibitor] | –
Cc1ccc(C2c3cccn3CCN2S(=O)(=O)c2ccc([N+](=O)[O-])cc2)cc1 (stereo not drawn) | inactive | –
COc1ccc(CCNC(=O)CN2CCN(c3cccc(Cl)c3)CC2)cc1OC | inactive | –
CC(=O)Nc1ccc(S(=O)(=O)N2CCN(c3cc(C)ccc3C)CC2)cc1 | inconclusive: 7.04% [signal inhibitor] | –
Cc1ccc2nc(N3CCN(C(=O)C4COc5ccccc5O4)CC3)sc2c1 (stereo not drawn) | inconclusive: 0.221% [signal inhibitor] | –
Cc1ccnc(NS(=O)(=O)c2ccc(NC(=O)c3cc(=O)c4ccc(C)c(C)c4o3)cc2)n1 | inconclusive: -0.14% [signal inhibitor] | –
Cc1ccc(-c2nc(-c3ccccn3)no2)cc1Cl | – | inconclusive: 15.8 µM [signal inhibitor, partial curve]
COc1ccc(CNC(=O)c2cc3c(=O)n(Cc4cccs4)ccc3nc2C)cc1 | inactive | –
O=C(CN1CCCN(S(=O)(=O)c2ccc(F)cc2)CC1)Nc1ccccc1Br | inconclusive: 5.49% [signal inhibitor] | –
CCc1nc(C)cn1S(=O)(=O)c1cc(Br)c(C)cc1OC | inconclusive: 7.15% [signal inhibitor] | –
Cc1nn(Cc2ccccc2)c(C)c1NC(=O)c1cc(C(C)C)on1 | inconclusive: 2.53% [signal inhibitor] | –
c1ccc(CSc2nnc(-c3ccco3)n2Cc2ccco2)cc1 | inactive | –
Cc1ccc(C(=O)c2cn(Cc3ccc(F)cc3)c3nc(C)ccc3c2=O)cc1 | inconclusive: 2.49% [signal inhibitor] | –
CCOc1ccc(C(=O)Nc2c(C(N)=O)oc3ccccc23)cc1 | inconclusive: 1.57% [signal inhibitor] | –

Structure (SMILES) | IkBa stabilization activation | Potency
O=C(CN1C(=O)COc2ccc(S(=O)(=O)Nc3ccccc3)cc21)NCc1ccccc1Cl | inconclusive: -0.0953% [signal inhibitor] | –
CCOC(=O)c1ccc(N2C(=O)c3[nH]nc(-c4ccccc4)c3C2c2cccs2)cc1 (stereo not drawn) | inconclusive: 1.75% [signal inhibitor] | –
O=C(CSc1nc2c(c(=O)[nH]1)CN(Cc1ccc(F)cc1)CC2)Nc1cccc(C(F)(F)F)c1 | inconclusive: 2.48% [signal inhibitor] | –
Cc1cc(C)nc(-n2nc(C)c3c2NC(=O)CC3c2ccccc2OC(C)C)n1 (stereo not drawn) | inconclusive: -3.67% [signal inhibitor] | –
Cc1ccc(S(=O)(=O)NCCC(=O)Nc2nnc(C3CC3)s2)cc1C | inconclusive: 1.93% [signal inhibitor] | –
COC(=O)c1ccccc1NC(=O)c1cc(-c2ccc(OC)c(OC)c2)on1 | – | inconclusive: 15.8 µM [signal inhibitor, partial curve]
COc1ccc(-c2[nH]c(-c3ccccc3)nc2SCC(=O)NC2CCCC2)cc1 | inconclusive: 8.55% [signal inhibitor] | –
COc1ccc(CCNC(=O)c2cc3c(=O)n(C)c4cc(Cl)ccc4c3s2)cc1OC | inactive | –
COc1ccc(-c2cc(NCc3ccc(C)cc3)n3cnnc3n2)cc1 | inconclusive: 0.709% [signal inhibitor] | –
COc1cccc(NC(=O)C(=O)NCCc2sc(-c3cccc(C)c3)nc2C)c1 | – | inconclusive: 31.6 µM [signal inhibitor, single point]
Cn1c(=Nc2ccc(N3CCOCC3)cc2)ccc2ccccc21 | inactive | –
COc1ccc(Nc2nc(N)nc(CSc3nc4ccccc4s3)n2)cc1 | inconclusive: -9.9% [signal inhibitor] | –
CCc1ccc(-c2nc(CN3CCCC(C(=O)NCCc4ccc(OC)c(OC)c4)C3)c(C)o2)cc1 (stereo not drawn) | inconclusive: 6.46% [signal inhibitor] | –
COc1ccccc1CNc1ncnc2ccc(-c3c(C)noc3C)cc12 | – | inconclusive: 1.26 µM [rising, partial curve]
COC(=O)c1ccccc1S(=O)(=O)N1CCC(c2nc3ccccc3o2)CC1 | inconclusive: 6.44% [signal inhibitor] | –
CCCn1c(C)cc(C(=O)COC(=O)c2ccc(Cl)c(S(=O)(=O)N3CCCC3)c2)c1C | inactive | –
COc1ccc2nc(Nc3nc(C)c(C(C)=O)s3)sc2c1 | – | inconclusive: 10 µM [rising, partial curve]
O=C(c1ccc2c(c1)N(Cc1ccccc1F)C(=O)c1ccccc1S2(=O)=O)N1CCCCCC1 | inconclusive: 1.54% [signal inhibitor] | –
CCOc1ccc(CCNC(=O)c2ccc(Cn3c(=O)c4cccn4c4cccnc43)cc2)cc1 | inactive | –
COc1ccc(-c2csc3ncnc(Nc4ccc(OC)c(OC)c4)c23)cc1 | inactive | –
C[C@@H]1CN(CCCn2c3ccccc3c3ccccc32)C[C@H](C)N1 | inconclusive: -0.657% [signal inhibitor] | –
Cc1cc(N2CCCCC2)nc2ccc(NC(=O)CCC(=O)N3CCN(c4cccc(Cl)c4)CC3)cc12 | inconclusive: 1.55% [signal inhibitor] | –
